# Measurements taken from PubChem BioAssay AID1347120 (National Center for Advancing Translational Sciences (NCATS), 2019).
# Hit rate of the full screen: of about 390,000 compounds, about 930 (0.24%) were called active. The inconclusive results got no clear call from the source; some entries with a clear call stand among them for comparison. The call rests on the fitted dose curve; in most records, active means well fitted activation curve with a large enough effect; inconclusive means small, poorly fitted or top-dose-only effect; inactive means no such curve, though single readings can be large or run the other way. Potencies of inconclusive entries are doubtful fits and often do not repeat.
# Test: qHTS for Suppressors of FUS Proteinopathy: Primary screen using FUS-linked yeast assay; further: nearly all actives have a fitted effect of over 55% in size;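 on growth rescue (activation): plate controls were DMSO vehicle for no effect and reference control for full effect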
# Conditions: S. cerevisiae FUS-expressing, OD600, 24 h; Potency: growth rescue; growth rescue (activation): at 76.6 µM (top of the series)
# In short: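 Yeast expressing FUS under galactose induction, OD 0.005 in 2% galactose medium; compounds in a dilution series, 24 h at 30C. Growth rescue by absorbance at 600 nm; CP55940 positive control, DMSO negative.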
# Potency means the concentration at half of the fitted maximal effect; tags describe the fitted curve by direction and shape.
SMILES,growth rescue (activation),Potency
Cc1ccc(Cn2c(=O)c3c(nc4n3CCN4c3cc(C)cc(C)c3)n(C)c2=O)cc1,inactive: -8.75%,
CCC(NC(=O)CCc1c(C)c2cc3c(-c4ccccc4)coc3cc2oc1=O)C(=O)O (stereo unspecified),,"inconclusive: 25.1 µM [activator, partial curve, poor fit]"
CC(C)C(=O)NC(c1ccccc1Cl)c1c(O)ccc2ccccc12 (stereo unspecified),inactive: 44.9%,
CCCCOc1ccc(S(=O)(=O)Nc2cccc(-c3ccc(N4CCOCC4)nn3)c2)cc1,,"inconclusive: 28.2 µM [activator, single point]"
Cn1c(NCc2ccco2)nc2c1c(=O)n(Cc1ccc(Br)cc1)c(=O)n2C,inactive: 20.7%,
Cc1c(Cl)cccc1NC(=O)[C@@]1(CC(=O)O)CC(/C=C/c2ccccc2)=NO1,,"inconclusive: 22.4 µM [activator, single point]"
CCOc1ccc(NC(=O)CC2CC(C)(C)OC2=O)cc1 (stereo unspecified),inactive: -9.28%,
Cc1n[nH]c(C)c1N1C(=O)c2cccc3c(N4CCCCCC4)ccc(c23)C1=O,,"inconclusive: 22.4 µM [activator, partial curve, poor fit]"
O=C(CNc1cccc2ccccc12)N/N=C/c1ccc([N+](=O)[O-])o1,inactive: 25.3%,
Cc1ccc(NC2=CC(=O)C(=O)c3ccccc32)c(C)c1,inactive: -7.47%,
O=C(COC(=O)[C@@H]1CCCN1S(=O)(=O)c1ccc(Cl)cc1)NC12CC3CC(CC(C3)C1)C2,,"inconclusive: 35.5 µM [activator, single point]"
COCCNC(=O)CSc1nnc(-c2ccc(OC)c(OC)c2)c(-c2ccc(OC)c(OC)c2)n1,,"inconclusive: 35.5 µM [activator, single point]"
CC(=O)C1=C(C)NC(C)=C(C(C)=O)C1c1cn(-c2ccccc2)nc1-c1cccs1,,"inconclusive: 25.1 µM [activator, partial curve, poor fit]"
Cc1ccc(CSc2nc(=O)c3c(C)cc(C)nc3n2C2CC2)cc1,,"inconclusive: 39.8 µM [activator, single point]"
CC(Sc1ncc(S(=O)(=O)c2ccc(C(C)C)cc2)c(N)n1)C(=O)Nc1ccccc1 (stereo unspecified),,"inconclusive: 28.2 µM [activator, single point]"
COc1ccc(-c2cn[nH]c2-c2ccc(OCc3ccc(F)cc3)cc2O)cc1OC,,"inconclusive: 17.8 µM [activator, single point]"
CCOC(=O)c1cc(-c2ccc(F)cc2)n(CCC(=O)Nc2ccccc2OC)c1C,,"inconclusive: 28.2 µM [activator, partial curve]"
Cc1ccc2c(c1)c1c(n2CC(O)CNC2CCCCC2)CCCC1 (stereo unspecified),inactive: -1.77%,
COc1ccccc1NC(=O)CS(=O)(=O)c1cn(CC(=O)N(C(C)C)C(C)C)c2ccccc12,,"inconclusive: 39.8 µM [activator, single point]"
Cc1cc(C)n2nc3nc(N4CCCCC4)nc(-c4ccco4)c3c2n1,,"inconclusive: 39.8 µM [activator, single point]"
COc1ccc(N=C2SC(CC(=O)Nc3ccc(OC)cc3OC)C(=O)N2C)cc1 (stereo unspecified),,"inconclusive: 11.2 µM [activator, partial curve, poor fit]"

SMILES,growth rescue (activation),Potency
COc1ccc(NC(=O)c2c(NCc3ccc(C)o3)sc3c2CCC(C)C3)cc1 (stereo unspecified),,"inconclusive: 31.6 µM [activator, single point]"
Cc1ccc(S(=O)(=O)N2C[C@H]3C(=O)C[C@@H]4C(=O)N(c5ccccc5)C(=O)[C@@H]4[C@@H]3C[C@H]2c2cccc(Cl)c2)cc1,,"inconclusive: 28.2 µM [activator, partial curve]"
O=C(NC1CCCCC1)c1ccc(CN2CCOCC2)cc1,,"inconclusive: 4.47 µM [activator, full curve, poor fit]"
CNC(=S)N/N=C/c1cc(C)ccc1C,inactive: 4.01%,
CC1CC2(CCCC2)Nc2ccc(F)cc21 (stereo unspecified),inactive: -5.01%,
COc1ccc(CNC(=O)c2oc3c(c2C)-c2nn(Cc4ccccc4Cl)cc2CC3)cc1,,"inconclusive: 25.1 µM [activator, single point]"
CSc1ccccc1NC(=O)C1=CC(c2ccc3c(c2)OCO3)=NS(=O)(=O)N1C,,"inconclusive: 28.2 µM [activator, single point]"
COCCN1C(=O)Cc2c1nc(N)c1c(N)nc(N3CCN(c4ccc(F)cc4)CC3)c(C#N)c21,,"inconclusive: 7.94 µM [activator, partial curve]"
CSCCC1NC(=O)N(CC(=O)N2N=C(c3ccc(Cl)cc3)CC2c2ccco2)C1=O (stereo unspecified),,"inconclusive: 14.1 µM [activator, partial curve]"
O=C(NCC1(c2ccccc2)CCCC1)C1(c2ccccc2)CCCC1,,"inconclusive: 10 µM [activator, partial curve]"
COc1ccc(/C(O)=C2/C(=O)C(=O)N(Cc3ccco3)C2c2cccs2)cc1 (stereo unspecified),inactive: 2.43%,
CCOC(=O)C1=C(C)N=c2sc(=Cc3ccc(OCC(=O)O)cc3)c(=O)n2C1c1ccc(SC)cc1 (stereo unspecified),,"inconclusive: 50.1 µM [activator, single point]"
CCc1cccc(CC)c1-n1c(SCC(=O)N2CCc3ccccc32)nc(O)cc1=O,,"inconclusive: 50.1 µM [activator, single point]"
COc1ccc(NC(=O)c2c(NC(=O)COc3ccc(Cl)cc3)sc3c2CCCCC3)cc1,inactive: -3.89%,
Cn1ccc2cc(S(=O)(=O)N3CCCN(C(=O)Nc4ccc(Br)cc4)CC3)ccc21,,"inconclusive: 25.1 µM [activator, partial curve]"
COc1cc(NC(=O)CCc2c(C)noc2C)c(Cl)cc1C(=O)O,inactive: 16.1%,
Cc1ccc(-c2nnc(Nc3ccc(Cl)cc3)c3ccccc23)cc1S(=O)(=O)NCC1CCCO1 (stereo unspecified),,"inconclusive: 50.1 µM [activator, single point]"
COC(=O)CN1C(=O)S/C(=C/c2ccc(N3CCCCC3)o2)C1=O,,"inconclusive: 28.2 µM [activator, partial curve, poor fit]"
O=C(c1cccc(Cl)c1)N1CCC(c2nc3c(nnn3Cc3ccc(F)cc3F)c(=O)[nH]2)CC1,,"inconclusive: 31.6 µM [activator, single point]"
Cc1coc2c(C)c3oc(=O)c(CCC(=O)NCCCN4CCOCC4)c(C)c3cc12,inactive: -9.56%,
CCCC(=O)Nc1ccc2c(c1)nc1n2CCSC1,,"inconclusive: 50.1 µM [activator, single point]"

SMILES,growth rescue (activation),Potency
COc1ccc(N(CC(=O)N2c3ccccc3CC2C)S(=O)(=O)c2c(C)noc2C)cc1 (stereo unspecified),,"inconclusive: 10 µM [activator, partial curve]"
O=C(c1ccc(CS(=O)(=O)c2c(Cl)cccc2Cl)o1)N1CCCC1,inactive: -10.9%,
Cc1ccc(C(=O)NCC(=O)OCC(=O)N(CC(C)C)c2c(N)n(Cc3ccccc3)c(=O)[nH]c2=O)s1,,"inconclusive: 20 µM [activator, partial curve]"
COc1ccc(C2=Nc3ccccc3N(C(=O)c3ccc4c(c3)OCO4)C2C(=O)NCc2ccccc2)cc1 (stereo unspecified),,"inconclusive: 7.94 µM [activator, partial curve]"
CC[C@H](CCCCCC#N)CCC(=O)N(c1ccccc1)c1ccccc1,inactive: 29.6%,
COC(=O)[C@]12CCCCC=C1N(Cc1ccco1)C(=O)[C@H](CC(=O)NCC13CC4CC(CC(C4)C1)C3)C2,,"inconclusive: 44.7 µM [activator, single point]"
COc1ccc(CCNC(=O)CSc2nnc(-c3ccc(C)cc3)c(-c3ccc(C)cc3)n2)cc1OC,,"inconclusive: 3.55 µM [activator, full curve]"
CCCCOc1cccc(C(=O)N(Cc2ccc(Cl)cc2)C2CCS(=O)(=O)C2)c1 (stereo unspecified),,"inconclusive: 28.2 µM [activator, single point]"
Cc1ccn2c(=O)nc(SCC(=O)OCc3ccccc3)nc2c1,,"inconclusive: 50.1 µM [activator, single point]"
COc1cc2c(cc1NC(=O)CN1C(=O)NC3(CCc4ccccc43)C1=O)oc1ccccc12 (stereo unspecified),,"inconclusive: 31.6 µM [activator, partial curve, poor fit]"
CC(=O)C1=C(C)NC(SCC(N)=O)=C(C#N)C1CC(C)C (stereo unspecified),,"inconclusive: 3.98 µM [activator, full curve]"
COC(=O)[C@]12C[C@H](CC(=O)N3CCN(C(=O)C4CC4)CC3)C(=O)N(Cc3ccc(Cl)cc3Cl)C1=C[C@H](C1CCCC1)O[C@@H]2C,,active: 31.6 µM
CCOC(=O)c1c(C)oc2nc(C)nc(NCCCN3CCN(c4cccc(C)c4)C(C)C3)c12 (stereo unspecified),inactive: -7.61%,
COC(=O)[C@]12C[C@H](CC(=O)N3CCCCC3)C(=O)N(CCC3=CCCCC3)C1=C[C@H](C1CCCC1)O[C@@H]2C,,"inconclusive: 39.8 µM [activator, single point]"
CC(=O)N1c2ccc(S(=O)(=O)N3CCC(C(=O)N4CCN(c5ccc(Cl)cc5)CC4)CC3)cc2CC1C (stereo unspecified),,"inconclusive: 12.6 µM [activator, partial curve, poor fit]"
COc1ccc(C(=O)Nc2oc(-c3ccccc3)c(-c3ccccc3)c2C#N)cc1OC,,"inconclusive: 50.1 µM [activator, single point]"
CCCN(CC(=O)Nc1ccccc1C)C(=O)/C=C/c1ccc(S(=O)(=O)N2CCCCCC2)cc1,,"inconclusive: 22.4 µM [activator, partial curve, poor fit]"
COc1ccccc1N1CCN(C(=O)CSc2nc(-c3ccc(C(C)C)cc3)no2)CC1,,"inconclusive: 14.1 µM [activator, partial curve, poor fit]"
COc1cc(/C=C\C(=O)NCc2ccc3[nH]c(C)cc3c2)cc(OC)c1OC,,"inconclusive: 39.8 µM [activator, partial curve, poor fit]"
